{
  "source": "paper PMC4336329",
  "about": "(PLoS ONE, 2015)",
  "note": "Hit rate of the full screen: of about 310,000 compounds, about 14,000 (4.5%) showed an effect of 50% or more. Effects have a minus sign here. The list shows a part of the results.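 Also: peak tail current of the secondary pulse compared with the same well before compound.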",
  "data": [
    {"biological_target": "human ether-à-go-go-related gene (hERG) potassium channel (human, UniProt Q12809)", "sequence (Q12809 whole entry, looked up)": "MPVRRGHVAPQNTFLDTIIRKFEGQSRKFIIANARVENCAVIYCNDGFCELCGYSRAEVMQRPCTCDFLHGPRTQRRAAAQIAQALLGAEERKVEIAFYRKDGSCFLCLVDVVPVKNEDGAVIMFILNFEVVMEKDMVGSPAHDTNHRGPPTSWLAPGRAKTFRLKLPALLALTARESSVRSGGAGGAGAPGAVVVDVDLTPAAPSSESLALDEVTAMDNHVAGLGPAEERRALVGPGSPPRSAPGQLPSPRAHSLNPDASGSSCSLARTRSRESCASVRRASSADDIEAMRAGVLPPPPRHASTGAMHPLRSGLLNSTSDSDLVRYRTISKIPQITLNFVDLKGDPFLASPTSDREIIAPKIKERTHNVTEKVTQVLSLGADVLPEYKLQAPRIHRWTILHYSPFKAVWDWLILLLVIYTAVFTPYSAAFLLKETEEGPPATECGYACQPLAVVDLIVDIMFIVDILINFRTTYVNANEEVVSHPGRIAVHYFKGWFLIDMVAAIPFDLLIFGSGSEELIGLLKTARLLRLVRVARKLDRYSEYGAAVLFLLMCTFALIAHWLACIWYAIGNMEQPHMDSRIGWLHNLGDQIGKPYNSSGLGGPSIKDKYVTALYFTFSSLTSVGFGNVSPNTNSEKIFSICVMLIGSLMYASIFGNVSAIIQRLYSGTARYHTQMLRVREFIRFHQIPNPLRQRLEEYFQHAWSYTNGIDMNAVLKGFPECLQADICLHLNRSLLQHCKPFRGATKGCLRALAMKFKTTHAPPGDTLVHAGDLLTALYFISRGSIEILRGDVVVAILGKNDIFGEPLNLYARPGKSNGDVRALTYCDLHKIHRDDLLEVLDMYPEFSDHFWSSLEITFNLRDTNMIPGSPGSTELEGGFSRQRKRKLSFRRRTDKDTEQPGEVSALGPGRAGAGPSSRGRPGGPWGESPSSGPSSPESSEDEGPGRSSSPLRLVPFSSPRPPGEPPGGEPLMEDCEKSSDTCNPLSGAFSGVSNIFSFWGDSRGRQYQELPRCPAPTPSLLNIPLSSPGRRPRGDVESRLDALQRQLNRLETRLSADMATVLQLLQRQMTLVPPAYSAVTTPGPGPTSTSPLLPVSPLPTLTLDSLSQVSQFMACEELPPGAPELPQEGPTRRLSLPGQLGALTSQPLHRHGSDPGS", "assay": "primary screen, population patch clamp on CHO cells stably expressing hERG", "units": {"hERG current change (%, negative = inhibition) at 10uM": "%"}, "values": [
      {"smiles": "Cc1cc(C(=O)NCCCN2CCCC2=O)cs1", "hERG current change (%, negative = inhibition) at 10uM": 17.7},
      {"smiles": "CC1CCCC(C)N1NC(=O)c1ccc(Cl)c(S(N)(=O)=O)c1", "note": "(stereo not shown)", "hERG current change (%, negative = inhibition) at 10uM": -4.12},
      {"smiles": "Cc1ccc2cc(C#N)c(N3CCCN(S(=O)(=O)c4ccc(F)cc4)CC3)nc2c1", "hERG current change (%, negative = inhibition) at 10uM": 2.01},
      {"smiles": "Cc1cc(C=C2C(=O)NC(=S)NC2=O)c(C)n1-c1ccc2c(c1)OCO2", "hERG current change (%, negative = inhibition) at 10uM": 7.38},
      {"smiles": "Cc1ccc2c(c1)-n1c(nc3cc(F)ccc3c1=O)C(Cc1ccccc1)NC2=O", "note": "(stereo not shown)", "hERG current change (%, negative = inhibition) at 10uM": -7.13},
      {"smiles": "Cc1ccccc1C(=O)Nc1ccc(C(=O)N/N=C/c2ccncc2)cc1", "hERG current change (%, negative = inhibition) at 10uM": 2.08},
      {"smiles": "CCOC(=O)N1CCN(C(=O)c2ccc(Cl)c(S(=O)(=O)N3CCOCC3)c2)CC1", "hERG current change (%, negative = inhibition) at 10uM": -13.1},
      {"smiles": "O=C1CCc2cc(S(=O)(=O)NCCc3ccccc3)cc3c2N1CC3", "hERG current change (%, negative = inhibition) at 10uM": -7.2},
      {"smiles": "O=C(/C=C/c1ccco1)Nc1ccc2nc3n(c(=O)c2c1)CCCC3", "hERG current change (%, negative = inhibition) at 10uM": -8.17},
      {"smiles": "COc1cc(OC)c(C(=O)Nc2cccnc2)cc1OC", "hERG current change (%, negative = inhibition) at 10uM": -5.03},
      {"smiles": "CC1=NN(C(N)=S)C(=O)C1N=Nc1ccccc1", "note": "(stereo not shown)", "hERG current change (%, negative = inhibition) at 10uM": 32.6},
      {"smiles": "CCC(CO)NCCNC(CC)CO", "note": "(stereo not shown)", "hERG current change (%, negative = inhibition) at 10uM": 13.5},
      {"smiles": "COc1cc(/C=C2/SC(=S)N(CC(=O)O)C2=O)ccc1OC(=O)c1ccco1", "hERG current change (%, negative = inhibition) at 10uM": 3.09},
      {"smiles": "CCOC(=O)c1ccc(NC2c3ccccc3C(=O)N2c2cccnc2)cc1", "note": "(stereo not shown)", "hERG current change (%, negative = inhibition) at 10uM": -57},
      {"smiles": "CCOC(=O)[C@H]1[C@H]2COc3ccc(Cl)cc3[C@@H]2N2C(=O)c3ccccc3NC(=O)[C@@]12C", "hERG current change (%, negative = inhibition) at 10uM": 2.71},
      {"smiles": "Cc1nonc1CN(C)C(=O)CC1C(=O)NCCN1Cc1ccccc1F", "note": "(stereo not shown)", "hERG current change (%, negative = inhibition) at 10uM": 19.3},
      {"smiles": "O=S(=O)(CCc1nc2ccccc2o1)c1ccc2ccccc2c1", "hERG current change (%, negative = inhibition) at 10uM": 7.8},
      {"smiles": "Cc1ccc(NC(=S)N(CCCN2CCOCC2)Cc2ccco2)cc1", "hERG current change (%, negative = inhibition) at 10uM": 4.36},
      {"smiles": "COc1ccc2oc(=N)c(C(=O)Nc3ccc(F)cc3)cc2c1", "hERG current change (%, negative = inhibition) at 10uM": 26.6},
      {"smiles": "Cc1ccc(C(=O)NCC(=O)OCC(=O)Nc2ccc(Cl)cn2)cc1", "hERG current change (%, negative = inhibition) at 10uM": -0.612},
      {"smiles": "CC1(C)CC(=O)c2cnc3nc4ccccc4n3c2C1", "hERG current change (%, negative = inhibition) at 10uM": -42.2},
      {"smiles": "COc1ccc(OC)c(/C=N/n2c(COc3ccccc3)n[nH]c2=S)c1", "hERG current change (%, negative = inhibition) at 10uM": 12.2},
      {"smiles": "Cc1ccc(CS(=O)(=O)CC(C)(O)c2ccccc2)cc1", "note": "(stereo not shown)", "hERG current change (%, negative = inhibition) at 10uM": 9.15},
      {"smiles": "Cc1ccc(OCCn2cc(Br)c(=O)[nH]c2=O)cc1", "hERG current change (%, negative = inhibition) at 10uM": 11},
      {"smiles": "CC(=O)NCCn1ccc2ccccc21", "hERG current change (%, negative = inhibition) at 10uM": 4.61},
      {"smiles": "CCc1ccc(NC(=O)C(NS(=O)(=O)c2ccc3c(c2)CCN3C(C)=O)C(C)C)cc1", "note": "(stereo not shown)", "hERG current change (%, negative = inhibition) at 10uM": 2.68},
      {"smiles": "COc1ccccc1C(=O)n1nc(-c2ccccc2)nc1NCc1ccco1", "hERG current change (%, negative = inhibition) at 10uM": -22.1},
      {"smiles": "O=C(NCc1ccncc1)C(=O)NCC1OCCN1S(=O)(=O)c1cc(F)ccc1F", "note": "(stereo not shown)", "hERG current change (%, negative = inhibition) at 10uM": 1.2},
      {"smiles": "CCOC(=O)c1c(NC(=O)C2C3CCC(O3)C2C(=O)O)sc2c1CCCC2", "note": "(stereo not shown)", "hERG current change (%, negative = inhibition) at 10uM": 25.9},
      {"smiles": "COc1ccc(N(CCC#N)C(=O)/C(C#N)=C/c2cccs2)cc1", "hERG current change (%, negative = inhibition) at 10uM": -17.1},
      {"smiles": "Cc1cc(=O)oc2cc(OC(C)C(=O)N3CCCc4ccccc43)ccc12", "note": "(stereo not shown)", "hERG current change (%, negative = inhibition) at 10uM": -30},
      {"smiles": "COc1ccc(-n2nc3c(c2NC(=O)C24CC5CC(CC(C5)C2)C4)CS(=O)C3)cc1", "note": "(stereo not shown)", "hERG current change (%, negative = inhibition) at 10uM": -5.49},
      {"smiles": "Cc1cc(NC(=O)CCC(=O)N(CC(=O)NCC2CCCO2)c2ccc(F)c(Cl)c2)no1", "note": "(stereo not shown)", "hERG current change (%, negative = inhibition) at 10uM": 8.91},
      {"smiles": "CCCCCCOC(=O)Sc1nc2ccccc2o1", "hERG current change (%, negative = inhibition) at 10uM": 8.42},
      {"smiles": "COC(C#CCCN(C)C)(c1ccccc1)c1ccccc1.Cl", "hERG current change (%, negative = inhibition) at 10uM": -33.3},
      {"smiles": "Cn1c(=O)[nH]c(=O)c2c1nc(SCCO)n2Cc1ccccc1Cl", "hERG current change (%, negative = inhibition) at 10uM": 12.2},
      {"smiles": "COc1ccc(CN(Cc2nc3ccccc3c(=O)[nH]2)C(=O)C(C)(C)C)cc1", "hERG current change (%, negative = inhibition) at 10uM": 12.5},
      {"smiles": "CC(N=C1NS(=O)(=O)c2ccccc21)C(=O)N1CCc2ccccc2C1", "note": "(stereo not shown)", "hERG current change (%, negative = inhibition) at 10uM": -15.1},
      {"smiles": "Cn1c(=O)c2cc(S(=O)(=O)NC(C(=O)Nc3cccc(F)c3)c3ccccc3)ccc2n(C)c1=O", "note": "(stereo not shown)", "hERG current change (%, negative = inhibition) at 10uM": -7.01},
      {"smiles": "CCOc1cc(S(=O)(=O)n2nc(C)cc2C)ccc1Br", "hERG current change (%, negative = inhibition) at 10uM": 42.6},
      {"smiles": "Cc1ccc(NC(=O)CN(C)C(=O)/C=C/c2cccs2)cc1", "hERG current change (%, negative = inhibition) at 10uM": -25.2},
      {"smiles": "O=C(NCc1nnc(SCc2ccc(F)cc2)n1-c1ccccc1)C12CC3CC(CC(C3)C1)C2", "hERG current change (%, negative = inhibition) at 10uM": -13.4},
      {"smiles": "O=Cc1ccccc1OCCOc1ccccc1C=O", "hERG current change (%, negative = inhibition) at 10uM": -22},
      {"smiles": "O=C(O)C(=O)O.O=C(c1ccccc1)N1CCN(C2CCCCCC2)CC1", "hERG current change (%, negative = inhibition) at 10uM": -28.8},
      {"smiles": "COc1ccc(NS(=O)(=O)c2ccc(NC(C)=O)cc2)nn1", "hERG current change (%, negative = inhibition) at 10uM": 10.8},
      {"smiles": "CSc1cccc(NC(=O)CCCn2c(=O)c3cccn3c3cccnc32)c1", "hERG current change (%, negative = inhibition) at 10uM": -39.5},
      {"smiles": "COCCN(C(=O)COC(=O)C1CC1C)c1c(N)n(Cc2ccccc2)c(=O)[nH]c1=O", "note": "(stereo not shown)", "hERG current change (%, negative = inhibition) at 10uM": -2.38},
      {"smiles": "Cc1nc2cc3nc(C(F)(F)F)[nH]c3cc2[nH]1", "hERG current change (%, negative = inhibition) at 10uM": 0.0754},
      {"smiles": "Nc1ccc(C(=O)N/N=C\\c2cc(N=Nc3cccc4ccccc34)ccc2O)cc1", "hERG current change (%, negative = inhibition) at 10uM": 19.4},
      {"smiles": "COc1cc(-c2noc(CCC(=O)Nc3cccnc3)n2)cc(OC)c1OC", "hERG current change (%, negative = inhibition) at 10uM": -3.71},
      {"smiles": "ClCC(Br)CBr", "note": "(stereo not shown)", "hERG current change (%, negative = inhibition) at 10uM": 11.8},
      {"smiles": "CCCCCOc1ccccc1C(=O)NCCCC(=O)O", "hERG current change (%, negative = inhibition) at 10uM": 11.7},
      {"smiles": "CN1CCN(c2ccc(Cl)cc2NC(=O)/C=C/c2cccc(F)c2)CC1", "hERG current change (%, negative = inhibition) at 10uM": -69.9},
      {"smiles": "CC(=O)Nc1cccc(-c2nnc(SCC(=O)N3CCCCC3)n2C)c1", "hERG current change (%, negative = inhibition) at 10uM": -2.06},
      {"smiles": "O=C(N/N=C/c1ccccc1Cl)c1n[nH]c2c1CCCC2", "hERG current change (%, negative = inhibition) at 10uM": 23.6},
      {"smiles": "O=C(c1cccs1)N1CCC(c2ccccc2)C1", "note": "(stereo not shown)", "hERG current change (%, negative = inhibition) at 10uM": -1.16},
      {"smiles": "CC(C)C(=O)NCCSc1c[nH]c2ccccc12", "hERG current change (%, negative = inhibition) at 10uM": 7.45},
      {"smiles": "Nc1nnc(SCc2cn3cc(Cl)ccc3n2)s1", "hERG current change (%, negative = inhibition) at 10uM": 5.94}
    ]}
  ]
}
